In PubChem BioAssay AID1963576 (National Center for Advancing Translational Sciences (NCATS), 2024):
Screen size: about 46,000 compounds; about 60 (0.1%) were called active. Another 3% or so got no clear call; they are omitted. Calls come from the whole dose curve; as a rule, active = well fitted inhibition curve with a large enough effect; inconclusive = small, poorly fitted or top-dose-only effect; inactive = no such curve, though single readings can be large or run the other way. Some of the results follow.

Assay: Primary qHTS assay for Inhibitors of ovarian cancer metastasis using an organotypic tumor microenvironment (TME) model.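 For activity change, negative = inhibition: plate controls were DMSO wells for no effect and tomatine positive control wells for full effect.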 Note: nearly all actives have a fitted effect of over 65% in size.
Conditions: SKOV3ip1-GFP adhesion/invasion on 3D omental model, fluorescence; series mostly up to 45.8 µM; activity change, negative = inhibition: at the top concentration
Method in brief: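 Adhesion/invasion was scored as fixed GFP-labeled SKOV3ip1 cell counts (488/509 nm), normalized to DMSO and tomatine controls. Cancer cells in serum-free medium, with four compound doses (0.36-46 umol/L), sat 2 hr at RT then 16 hr at 37 C on a 48 hr fibroblast/mesothelial/ECM culture.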

Activity change, negative = inhibition, inactive:
CCOc1ccc(Cc2cc([C@@H]3O[C@H](CO)[C@@H](O)[C@H](O)[C@@H]3O)ccc2Cl)cc1 -2.21%
CCc1ccc(CN(Cc2cn[nH]c2-c2ccc(OC)cc2)C(=O)Nc2ccc(Br)cc2)cc1 4.45%
CN(C)c1ccc(C(CNS(=O)(=O)c2ccc(F)cc2F)N2CCOCC2)cc1 (stereo not given) -7.58%
CCc1nn(CC(=O)NCCOC)c(=O)c2cc3cc(F)ccc3n12 -15.4%
CCOC(=O)c1c(NC(=O)c2ccc(S(=O)(=O)N(CC)CC)cc2)sc2c1CCCCC2 -16%
CCn1c(SCC(=O)Nc2c(C)cccc2C)nnc1-c1nonc1NC(C)=O 3.73%
COc1cc(N2CCC(C(N)=O)CC2)ccc1Nc1nc(N)c(Cl)c(Nc2ccccc2S(=O)(=O)C(C)C)n1 9.03%
CN(C)c1nc(N(C)C)nc(N(C)C)n1 -2.09%
COc1cc(NS(=O)(=O)c2cc(Br)cc3c2N(C(=O)C2CC2)CC3)cc(OC)c1 -0.499%
Cc1cccc(NC(=O)Cn2c(=O)c3cccn3c3ccccc32)c1C -0.0987%
COc1ccc(-c2csc(-c3c(N)c(C(=O)c4ccccc4)n4ccccc34)n2)cc1OC -14.5%
CC1CCN(C(=O)Cn2c(SCC(=O)Nc3ccc(F)cc3)nc3ccccc32)CC1 8.5%
Cc1ccc(CN2CCN(C3CCN(S(=O)(=O)N(C)C)CC3)C(=O)C2=O)cc1 1.34%
CCN(CCCNC(=O)c1nn(-c2ccc(OC)c(Cl)c2)c(=O)c2c1c1ccccc1n2C)c1ccccc1 24.1%
Cc1ccc(NS(=O)(=O)c2ccc3c(c2)C(C(C)C)C(=O)N3)cc1C (stereo not given) 15%
Cc1nc2c(C(=O)NCCc3ccc(Cl)cc3)cnn2c(C)c1Cc1ccc(F)cc1 -10.8%
CC(C)c1ccc(OCC(=O)NCC(c2ccc(Cl)cc2)N2CCOCC2)cc1 (stereo not given) -11.9%
CCOC(=O)C1=C(CN2CCN(C)CC2)NC(=O)NC1c1ccc(F)cc1 (stereo not given) 3.55%
CCN(Cc1ccccc1)C(=O)Cn1c(=O)n(-c2cccc(C)c2)c(=O)c2c1c1cc(OC)ccc1n2C -1.88%
COc1nccc(-c2c(-c3ccc(F)cc3)ncn2C2CCNCC2)n1 18.6%
CCCSc1nc2sc3c(c2c(=O)n1-c1ccc(C)c(Cl)c1)CCN(C(C)=O)C3 5.22%
CNc1nc2c(c(=O)n(C)c(=O)n2C)n1CC(O)COc1ccc(OC)cc1 (stereo not given) -6.63%
COc1ccc(NS(=O)(=O)c2ccc(-n3cccn3)cc2)cc1OC 6.27%
Cc1cccc(-c2nnc(SCC(=O)N3CCCCC3)o2)c1 2.33%
CCn1c(=O)n(CC)c2cc(N3CCCC3)c(NC(=O)Nc3cc(C)cc(C)c3)cc21 -13.6%
COc1ccccc1N1CCN(C(=O)c2ccc(Nc3nc4ccccc4n4nnnc34)cc2)CC1 -26.2%
COc1ccc(S(=O)(=O)c2c(O)c(C)cc(NC(=O)c3ccccc3)c2C(C)C)cc1 -27.2%
Cc1ccc(CCNC(=O)CSCc2nc(-c3ccc(C)cc3)oc2C)cc1 -6.84%
Cc1ccc(CNC(=O)c2nn(C)c3c2CSc2ccc(C)cc2-3)cc1 11.8%
Cc1c(C(=O)Nc2cccc(-c3nc4ccccc4s3)c2)oc2ccc(F)cc12 -8.96%
CCn1c(CN2CCCCC2)nc2cc(NC(=O)c3cccc([N+](=O)[O-])c3)ccc21 0.122%
COc1cc(-c2nc(C(N)=O)c3c(n2)n(-c2cccc(C)c2)c(=O)n3C)cc(OC)c1OC 27.2%
Cc1ccc(NC(=O)Cn2c(=O)n(Cc3nc(C)no3)c(=O)c3cc4c(cc32)OCO4)cc1 8.75%
COc1cc2c(Oc3ccc4[nH]c(C)cc4c3F)ncnc2cc1OCCCN1CCCC1 8.34%
COc1ccc(NC(=O)N2CCN(S(=O)(=O)c3ccc4c(ccn4C)c3)CC2)c(OC)c1 -20.1%
CN(Cc1ccccc1)C(=O)CSc1nc(-c2ccc(F)cc2)cc(C(F)(F)F)n1 -0.459%
CCOc1ccc(CC(=O)Nc2c(C(=O)c3ccccc3)oc3ccc(OC)cc23)cc1OCC -5.65%
COCCOC(=O)c1c(-c2ccccc2)c(-c2ccccc2)nn(C)c1=O -6.43%
Cc1ccc(/C=C(\C#N)c2nc3ccccc3c(=O)[nH]2)cc1 5.3%
O=C(Nc1nnc(S(=O)(=O)N2CCc3ccccc32)s1)c1cccc(Cl)c1 6.01%
CCCC(CCC)C(=O)NC1CC(=O)N(c2ccc3c(c2)OCCO3)C1 (stereo not given) -10.2%

outcome, inactive:
O=C(Nc1cccc(C(F)(F)F)c1)Nc1ccc2snnc2c1
COc1ccccc1N1CCN(C(=O)CSc2nc3ccccc3nc2Cc2ccc(C)cc2)CC1
CCS(=O)(=O)c1cccc(C(=O)Nc2ccc(-c3nc4ccccc4s3)c(O)c2)c1
CC(C)NC(=O)C1CCN(C(=O)c2cnn(-c3ccccc3)c2-n2cccc2)CC1
Cn1nc(C(=O)NCCc2ccc(Cl)cc2)c2c1-c1ccccc1SC2
CN(C(=O)c1cc2nc(-c3ccc4c(c3)OCO4)cc(C(F)(F)F)n2n1)c1ccc(OC(F)(F)F)cc1
O=C(Nc1ccccc1F)c1oc2ccccc2c1NC(=O)c1c(F)cccc1F
CSc1nnc2n(-c3cccc(C)c3)c(=O)c3c4c(sc3n12)CCCC4
CC(C)c1ccc(NC(=O)Cn2c3ncccc3c(=O)n2-c2ccccc2)cc1
CCOc1ccc(-c2nnc(SCC(=O)Nc3cc(C)ccc3OC)o2)cc1
N#Cc1cccc(NC(=O)C2CCN(c3nc(-c4ccc(Cl)cc4)no3)CC2)c1
COC(=O)c1ccccc1NC(=O)c1ccc(=O)n(Cc2cccc(C)c2)c1
Cc1cc(NS(=O)(=O)c2ccc3oc(=O)c4ncn(C)c4c3c2)ccc1Br
CC(C)c1ccc(N2C(=O)CSC23C(=O)N(Cc2ccccc2)c2ccccc23)cc1 (stereo not given)
O=C(Cn1cc(SCc2c(F)cccc2Cl)c2ccccc21)N1CCCC1
COc1cccc(CNC(=O)C(C)n2c(=O)cc(-c3ccccc3)c3c(C)nn(C)c32)c1 (stereo not given)
Cc1nc2ccn(Cc3ccco3)c(=O)c2cc1C(=O)N1CCN(c2ccc(F)cc2)CC1
O=C(/C=C/c1ccccc1Cl)Nc1nc(-c2cccs2)ns1
CCc1ccccc1NC(=O)Cn1c(=O)n(Cc2ccc(OC)cc2)c(=O)c2oc3ccccc3c21
